According to publication PMC4336329 (PLoS ONE, 2015):
About 2,200 (0.71%) of roughly 310,000 compounds showed an effect of 50% or more. The effect is printed as a negative number. Some of the results follow.

Target: human ether-à-go-go-related gene (hERG) potassium channel (human, UniProt Q12809)
Test: primary screen, population patch clamp on CHO cells stably expressing hERG

Chain of human ether-à-go-go-related gene (hERG) potassium channel (Q12809 whole entry, looked up): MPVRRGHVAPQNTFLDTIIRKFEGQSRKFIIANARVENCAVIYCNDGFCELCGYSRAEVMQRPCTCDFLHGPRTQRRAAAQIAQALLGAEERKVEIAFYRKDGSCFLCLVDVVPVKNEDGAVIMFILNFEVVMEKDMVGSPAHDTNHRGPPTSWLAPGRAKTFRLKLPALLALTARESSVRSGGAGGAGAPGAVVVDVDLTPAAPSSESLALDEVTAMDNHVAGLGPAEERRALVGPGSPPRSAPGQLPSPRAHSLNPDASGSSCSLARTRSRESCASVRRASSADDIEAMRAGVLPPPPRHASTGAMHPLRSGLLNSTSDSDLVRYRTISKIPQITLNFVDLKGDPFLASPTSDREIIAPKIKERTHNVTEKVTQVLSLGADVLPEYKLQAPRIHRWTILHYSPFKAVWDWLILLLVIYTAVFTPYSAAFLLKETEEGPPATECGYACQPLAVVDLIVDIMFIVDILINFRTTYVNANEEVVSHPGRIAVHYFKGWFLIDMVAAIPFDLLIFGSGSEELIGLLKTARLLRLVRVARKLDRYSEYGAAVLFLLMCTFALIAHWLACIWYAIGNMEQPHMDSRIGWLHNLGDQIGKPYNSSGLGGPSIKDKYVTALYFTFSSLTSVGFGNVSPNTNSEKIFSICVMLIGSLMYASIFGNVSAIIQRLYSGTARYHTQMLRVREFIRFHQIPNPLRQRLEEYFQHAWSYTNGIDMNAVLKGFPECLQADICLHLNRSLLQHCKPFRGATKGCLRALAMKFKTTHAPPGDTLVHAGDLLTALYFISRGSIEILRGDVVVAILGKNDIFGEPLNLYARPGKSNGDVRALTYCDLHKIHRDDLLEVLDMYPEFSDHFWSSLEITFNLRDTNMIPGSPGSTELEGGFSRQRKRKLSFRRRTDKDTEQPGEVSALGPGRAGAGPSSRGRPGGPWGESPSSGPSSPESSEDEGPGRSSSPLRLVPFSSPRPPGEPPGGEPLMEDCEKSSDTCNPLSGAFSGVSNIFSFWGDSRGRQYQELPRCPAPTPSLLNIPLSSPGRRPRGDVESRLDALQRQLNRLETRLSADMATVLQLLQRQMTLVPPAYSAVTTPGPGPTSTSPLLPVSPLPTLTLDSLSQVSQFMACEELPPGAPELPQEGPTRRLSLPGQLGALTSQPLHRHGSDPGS

SMILES	hERG current change (%, negative = inhibition) at 1uM [%]
Cc1cccc(/C=C2\CS/C(=C\c3cccc(C)c3)C2=O)c1	4.28
CCOC(=O)N1CCN(c2c(NCCOC)c(=O)c2=O)CC1	10.5
O=C(OCc1ccccc1)c1ccccc1	3.88
CCOc1ccc(C(Nc2ccc(C)cc2)P2(=O)OCCCO2)cc1 (centres unmarked)	4.44
COc1ccc(/C=C/C(=O)NCCCc2ccccc2)cc1	1.93
CCc1c(C)nc(N)n2c(SCC(=O)Nc3ccccc3)nnc12	14.6
CCC(C)NC(=O)c1cnn2c1NC(c1ccc3c(c1)OCO3)CC2C(F)(F)F (centres unmarked)	0.913
COc1ccc(C(=O)OCC(=O)NC2CC2)cc1S(=O)(=O)N(C)Cc1ccccc1	-25.7
CC1CCc2sc(C(=O)N/N=C/C3CCCCC3)cc2C1 (centres unmarked)	8.03
Cc1cccc(/C(N)=N/OC(=O)c2ccoc2C)c1	12.1
COc1ccc(NC(=O)C(=O)NCC2CCCN2S(=O)(=O)c2cc(C)ccc2C)cc1 (centres unmarked)	10
COc1ccccc1C(=O)NNC(=O)C1CC=CCC1 (centres unmarked)	18.2
O=C(NCCCC1CCCC1)C1CCC(=O)N(Cc2cccc(F)c2)C1 (centres unmarked)	8.85
CCOC(=O)C1CCN(S(=O)(=O)c2ccc(C(=O)OC)cc2)CC1	2
Cn1c(=O)n(C)c2cc(NC(=O)CSc3ccccc3)ccc21	23.4
Cc1cc(=O)[nH]c(SCC(=O)NCc2ccco2)n1	16.6
COc1ccc(/C=C(\C#N)C(=O)NCc2cccs2)cc1OC	2.33
CC(C)(C)c1ccc(C(=O)N2CCN(c3ncccn3)CC2)cc1	6.17
COc1ccc(C)cc1NC(=O)NNC(=O)C(C)Oc1ccc([N+](=O)[O-])cc1 (centres unmarked)	-6
Cn1c(SCC(=O)N/N=C/c2ccccn2)nnc1-c1ccccc1	12
COC(=O)c1ccc(NC(=O)CNC(=O)C2CCCCC2)cc1	11
Cn1c(=O)[nH]c(=O)c2c1nc(NCCCn1ccnc1)n2CCOc1ccccc1	-1.2
COc1ccccc1N(CC(=O)NCCSCc1ccccc1)S(C)(=O)=O	6.27
O=C(NNC(=O)C1COc2ccccc2O1)c1cccc([N+](=O)[O-])c1 (centres unmarked)	15.3
CCOC(=O)N1CCN(c2ccc(Cl)c(Cl)c2)CC1	2.62
COc1ccccc1NC(=S)NCc1ccccc1	9.89
